Test results published in PubChem BioAssay.
The shares of active, inactive and inconclusive entries below differ from those in the screen. Activity calls are given as the source filed them.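 The calls were made as follows, unless noted: active = viability at or below 30% in both replicate assays; inconclusive = viability at or below 30% in just one of the two assays; inactive = the rest.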

Test: reduced viability of SK-BR-3 breast cancer cells – cell-based, 24 h, human, pilot screen (AID 572;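 active = viability at or below 10% of carrier control in both of two separate runs; inconclusive = viability at or below 10% in only one of the two runs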;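 also: compound exposure lasted between 18 and 24 h rather than exactly 24 h; 100% = carrier-treated control wells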)
Settings: SK-BR-3 viability, CellTiter-Glo luminescence, at 10 µM, active compounds read low
With `CC(=O)N1CCN(c2ccc(NC(=O)c3ccc(C(C)(C)C)cc3)cc2)CC1` the viability was inactive: 74.5%. In the case of `Nc1nc(Nc2cccc3ccccc23)nc(C2CCCC2=O)n1` (configuration not stated), the viability is reported as inconclusive: 41%. For `CNCCC(Oc1ccc(C(F)(F)F)cc1)c1ccccc1` (configuration not stated), the viability was inconclusive: 13%. For `Cc1ccc(C)c(N2CCN(CCCNC(=O)Cn3cc4c(n3)CCCCC4)CC2)c1`, the viability was inconclusive: 42%. For `CC1CCN(C(=O)Cn2cc3c(n2)CCCC3)CC1`, the viability was inactive: 97%. For `CCOc1ccccc1NC(=O)CCSc1nc2n[nH]c(C)c2c(=N)n1-c1ccccc1Cl`, the viability was inconclusive: 56.5%. With `Cn1c(NC(=O)c2ccccc2NC(=O)C(C)(C)C)nc2ccccc21` the viability was inactive: 95%. In the case of `Cc1ccc2nc(/C(C#N)=N/O)[nH]c2c1`, the viability is reported as inactive: 115%. In the case of `O=S1(=O)Nc2c(ccc3cccnc23)-c2ccccc21`, the viability is reported as inactive: 122%. With `COc1ccccc1S(=O)(=O)Cc1ccc(C(=O)NCCN2CCCCCC2)o1` the viability was inconclusive: 71%. For `CN(C)CCCN1c2ccccc2Sc2ccc(C(F)(F)F)cc21`, the viability was active: 4.5%. In the case of `COC(=O)c1nc2n(n1)C(c1ccc(OC)c(OC)c1)C(C(=O)OC1CCCCC1)=C(C)N2` (configuration not stated), the viability is reported as inconclusive: 67%. In the case of `COc1ccc(CCN2CCC(Nc3nc4ccccc4n3Cc3ccc(F)cc3)CC2)cc1`, the viability is reported as inconclusive: 56.5%. With `COc1cccc(N2CCN(c3ncnc4c3[nH]c3ccc(F)cc34)CC2C)c1` (configuration not stated) the viability was inconclusive: 14%. For `CC(C)[C@H](NC(=O)OC(C)(C)C)c1nnc(S(=O)(=O)Cc2c(F)cccc2Cl)o1`, the viability was inconclusive: 108%. For `O=C(NC1CCCC1)C(c1cccs1)N(C(=O)c1ccno1)c1ccccc1` (configuration not stated), the viability was inconclusive: 57.5%.

Test: HUVEC growth inhibition – cell-based, human, primary screen (AID 575);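 also: 100% = median of untreated cell wells with 0.1% DMSO on each plate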
Settings: HUVEC proliferation, CellTiter-Glo luminescence, 72 h; at 10 µM; active compounds read low
How it was run: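 Test system: HUVEC primary cells. Quantity: 1250 endothelial cells in each well. Dosing: single-point 10 µM, DMSO 0.1% final. Incubation: 72 h treatment at 37 °C. Measured by: CTG luminescence. Control set: DMSO cell controls and MePR drug controls. Plate: collagen-coated 384-well format.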
In the case of `COc1ccc(Cn2nnnc2C(c2cccnc2)N2CCN(c3ccc(O)cc3)CC2)cc1` (configuration not stated), the viability is reported as inconclusive: 42.9%. In the case of `CCOC(=O)N1CCC(NC(=O)c2ccc3nc(N4CCOCC4)sc3c2)CC1`, the viability is reported as inconclusive: 63.6%. In the case of `COC(=O)CCn1nnc(-c2ccc(C)cc2)n1`, the viability is reported as inactive: 109%. In the case of `Cc1ccc(C(C)C)c(OCc2nnc(SCC(=O)Nc3ncc(C)s3)n2C)c1`, the viability is reported as inconclusive: 41.8%. With `O=C(O)c1cc2cc(F)ccc2[nH]1` the viability was inactive: 78.4%. With `NS(=O)(=O)c1cc2c(cc1Cl)NC(CSCc1ccccc1)=NS2(=O)=O` the viability was inactive: 89.2%. For `CCOC(=O)N1CCN(c2cc(=O)n(-c3ccc(OCC)cc3)c(=O)[nH]2)CC1`, the viability was inactive: 104%. For `CC(C)(C)C1CCc2onc(C(=O)Nc3cnn(Cc4ccc(F)cc4)c3)c2C1` (configuration not stated), the viability was inconclusive: 72.9%. In the case of `CCN(CC)S(=O)(=O)c1ccc2[nH]cc(C(=O)NCCC3=CCCCC3)c(=O)c2c1`, the viability is reported as inconclusive: 25.3%. For `Cc1ccc2nc(NC(=O)Cn3cc4c(n3)CCCCC4)sc2c1`, the viability was inconclusive: 40.9%. For `C=CCn1c(COc2ccccc2F)nnc1SCC(=O)N1CC(=O)Nc2ccccc21`, the viability was inactive: 109%. In the case of `CCn1c(=N)n(CC(O)COc2cccc(C)c2)c2ccccc21` (configuration not stated), the viability is reported as inconclusive: 34.2%. In the case of `COc1ccc(CNc2oc(COc3ccccc3Cl)nc2C#N)cc1`, the viability is reported as inconclusive: 52.9%. In the case of `O=C(CC(=O)c1cc(Cl)ccc1O)c1ccccc1`, the viability is reported as inconclusive: 37%. For `C/C(Cl)=C\Cn1c(NCCc2ccccc2)nc2c1c(=O)n(C)c(=O)n2C`, the viability was inactive: 78.7%. For `COc1cccc(-c2cc(C(=O)Nc3c(C)nn(Cc4ccccc4)c3C)no2)c1`, the viability was inactive: 82.6%. In the case of `COC(=O)C1=C(C)N(Cc2ccco2)C(=O)C1`, the viability is reported as inactive: 103%. In the case of `CCOc1ccc(-c2cc(C(=O)N3CCN(c4ccccn4)CC3)c3ccccc3n2)cc1`, the viability is reported as inactive: 43.5%. For `COc1ccccc1NC(=O)Cn1nnc(-c2ccccc2NC(=O)c2ccco2)n1`, the viability was inconclusive: 49.3%. For `C(=C\c1ccccc1)/CN1CCN(C(c2ccccc2)c2ccccc2)CC1`, the viability was inconclusive: 25.2%. In the case of `CCc1cc(-c2[nH]ncc2-c2ccc3c(c2)OCO3)c(O)cc1O`, the viability is reported as active: 4.08%. For `CCOC(=O)c1ccccc1NC(=O)c1c(O)c2ccccc2n(CC)c1=O`, the viability was inconclusive: 48.7%. For `Cc1nc2sccn2c(=O)c1CCN1CCC(=C(c2ccc(F)cc2)c2ccc(F)cc2)CC1`, the viability was active: 11.5%. For `CCc1ccccc1NC(=O)CSc1nc2n[nH]c(C)c2c(=N)n1-c1ccc(OC)cc1`, the viability was inactive: 66.4%.

Test: H69AR cell proliferation blockers – human, duplicate replicates, primary screen (AID 580;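 active = viability at or under a set limit in both replicates, limit being median viability minus 3 SD, cut at about 48% in these data, passing the limit was not always enough; inconclusive = at or under the limit in just one replicate; inactive = at or above the limit in both replicates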;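 also: 100% = mean luminescence of untreated wells and 0% = no signal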)
Settings: H69AR lung tumor cells viability, ATP luminescence, 72 h; at 10 µM; active compounds read low
In the case of `CC(=O)N1CCN(c2ccc(NC(=O)c3ccc(C(C)(C)C)cc3)cc2)CC1`, the viability is reported as inconclusive: 44.2%. In the case of `Nc1nc(Nc2cccc3ccccc23)nc(C2CCCC2=O)n1` (configuration not stated), the viability is reported as active: 18%. In the case of `CNCCC(Oc1ccc(C(F)(F)F)cc1)c1ccccc1` (configuration not stated), the viability is reported as inactive: 58.5%. With `Cc1ccc(C)c(N2CCN(CCCNC(=O)Cn3cc4c(n3)CCCCC4)CC2)c1` the viability was inconclusive: 37.1%. In the case of `CCOc1ccccc1NC(=O)CCSc1nc2n[nH]c(C)c2c(=N)n1-c1ccccc1Cl`, the viability is reported as active: 16.9%. With `Cc1ccc2nc(/C(C#N)=N/O)[nH]c2c1` the viability was inactive: 78.2%. With `O=S1(=O)Nc2c(ccc3cccnc23)-c2ccccc21` the viability was inconclusive: 49.2%. With `CN(C)CCCN1c2ccccc2Sc2ccc(C(F)(F)F)cc21` the viability was inconclusive: 11.7%. With `COc1ccc(CCN2CCC(Nc3nc4ccccc4n3Cc3ccc(F)cc3)CC2)cc1` the viability was inconclusive: 0.52%. For `COc1cccc(N2CCN(c3ncnc4c3[nH]c3ccc(F)cc34)CC2C)c1` (configuration not stated), the viability was active: 3.55%. With `CC(C)[C@H](NC(=O)OC(C)(C)C)c1nnc(S(=O)(=O)Cc2c(F)cccc2Cl)o1` the viability was active: 1.65%. For `O=C(NC1CCCC1)C(c1cccs1)N(C(=O)c1ccno1)c1ccccc1` (configuration not stated), the viability was inactive: 91.2%.
